# PubChem BioAssay AID463173 (ICCB-Longwood Screening Facility, Harvard Medical School, 2010)
# Screen size: about 52,000 compounds; about 4,300 (8.3%) were called active. Cut-off read from the data, not from the text of the source: active = survival mostly below about 52% (no sharp cut-off); inactive = mostly above about 56%. This is one part of the list.
# Tested on: DeltatarO mutant
# Experiment: S. aureus survival, RN4220 and DeltatarO strains – OD600, teichoic acid synthesis inhibitors, primary screen (AID 463173)
# Conditions: S. aureus RN4220 wild type/DeltatarO growth, OD600, 18 h, active compounds read low, screened at 18.75 µg/mL (by protocol)
row,Compound,survival
1,Cc1ccc(NC(=O)CN2C(=O)C(c3ccc(C)cc3)=NC23CCCCCC3)cc1,inactive: 62%
2,Cc1ccc(C)c(N2CCN(C(=O)CCS(=O)(=O)c3ccc4c(c3)oc(=O)n4C)CC2)c1,inactive: 115%
3,COc1ccc2c(c1)c(=O)c(S(=O)(=O)c1ccc(Cl)cc1)cn2Cc1cc(C)ccc1C,inactive: 68%
4,CCOc1cc2c(cc1OCC)C(CC(=O)OC)N(C(=O)Nc1cc(OC)ccc1OC)CC2 (configuration not stated),inactive: 83%
5,CCN(CC)C(=O)c1sc2c(c1C)c(=O)n(CCc1ccccc1)c(=O)n2Cc1ccc(C)cc1,inactive: 79%
6,Cc1cc(C)cc(NC(=O)Cn2nc(N3CCN(c4ccccc4)CC3)ccc2=O)c1,inactive: 84%
7,Cc1ccc(C(C)N2CCN(S(=O)(=O)c3ccc4c(c3)OCCO4)CC2)cc1C (configuration not stated),inactive: 66%
8,CC(=O)c1c(C)n(S(=O)(=O)c2ccc(Cl)cc2)c2ccc(NS(=O)(=O)c3ccc(Cl)cc3)cc12,inactive: 59%
9,COc1ccc(S(=O)(=O)NCCc2sc(-c3cccnc3)nc2C)cc1OC,inactive: 88%
10,COc1cc(CN(C(=O)c2ccccc2Br)c2ccccn2)cc(OC)c1OC,inactive: 72%
11,Cc1ccc(CNC(=O)CCSCc2cnn(-c3ccccc3)c2-n2cccc2)cc1,inactive: 64%
12,COc1ccc(NCc2cccn2-c2nnc(N3CCOCC3)s2)cc1OC,inactive: 87%
13,COc1ccc(CNC(=O)Cn2ncc3c(=O)oc4ccccc4c32)c(OC)c1,inactive: 89%
14,CCCCNC(=O)c1cc(-c2cccnc2)nc2ccc(S(=O)(=O)NCCCC)cc12,inactive: 70%
15,COC(=O)CCCn1c(-c2ccc(C)cc2)c(C)n2c3c(=O)n(C)c(=O)n(C)c3nc12,inactive: 58%
16,COc1ccc(CNC(=O)CC2N=C3c4ccccc4N=C(SCC(=O)Nc4ccc(C(C)C)cc4)N3C2=O)cc1 (configuration not stated),inactive: 90%
17,COc1ccc(-c2cn3c(n2)sc2cc(C(=O)NC(C)C45CC6CC(CC(C6)C4)C5)ccc23)cc1 (configuration not stated),inactive: 72%
18,COCc1cc(C)nc2sc3c(c12)NC(c1ccccc1C(=O)O)N(c1cccc(C(F)(F)F)c1)C3=O (configuration not stated),inactive: 97%
19,COc1cc([N+](=O)[O-])ccc1NC(=O)c1nc2ccccc2n(C)c1=O,inactive: 102%
20,Cc1ccc(S(=O)(=O)c2nc(-c3cccc(Br)c3)oc2N2CCCCCC2)cc1,active: 45%
21,O=C(CSc1nnc2[nH]c(=O)cc(-c3ccccc3)n12)Nc1ccc(OC(F)(F)F)cc1,inactive: 80%
22,Cc1csc2nc(COC(=O)c3cccc(NC(=O)COc4ccccc4Cl)c3)cc(=O)n12,inactive: 88%

row,Compound,survival
1,CCc1cccc(NC(=O)Cc2nc(-c3ccc(OC)cc3)no2)c1,inactive: 77%
2,COCCCNC(=O)c1nn(C)c2c1CS(=O)(=O)c1ccccc1-2,inactive: 99%
3,COc1cc(C(=O)NC(c2ccccc2Cl)c2cc(Cl)c3cccnc3c2O)cc(OC)c1OC (configuration not stated),inactive: 85%
4,CC(C)NC(=O)C1CCN(S(C)(=O)=O)CC1,inactive: 93%
5,COc1ccccc1C(=O)Nc1cccc(C(=O)OCc2cc(=O)n3c4c(sc3n2)CCCC4)c1,inactive: 92%
6,CCOc1ccc(NC(=O)Cn2c(=O)n(CC3CCC(C(=O)NCCc4ccccc4)CC3)c(=O)c3ccccc32)cc1 (configuration not stated),inactive: 77%
7,COc1ccc(NC(=O)CSc2oc(-c3ccco3)nc2S(=O)(=O)c2ccc(C)cc2)c(OC)c1,inactive: 67%
8,Cc1nc2ccccc2c(=O)n1/N=C1\C(=O)N(C)c2ccccc21,inactive: 83%
9,CN(C)S(=O)(=O)c1ccc2c(c1)N(CC(=O)Nc1cccc(C(F)(F)F)c1)C(=O)CS2,inactive: 75%
10,Cc1c(CNC(C)CCc2ccccc2)c(C(=O)O)c(C)n1Cc1ccc(F)cc1 (configuration not stated),inactive: 72%
11,CCOC(=O)c1ccccc1NC(=O)NCc1c(-n2cccc2)sc2c1CCCC2,inactive: 71%
12,CCOc1ccc(NC(=O)C(CC(C)C)N2Cc3ccccc3C2=O)cc1 (configuration not stated),inactive: 130%
13,CC(C)(C)OC(=O)N1CCC(N2CCN(Cc3ccccc3)C(=O)C2=O)CC1,inactive: 83%
14,Cc1onc(-c2ccccc2Cl)c1C(=O)Oc1ccccc1F,inactive: 76%
15,COc1cccc(N2CCN(C(=O)CCSCc3ccccc3F)CC2)c1,inactive: 101%
16,CCn1ccc2c(OCC(=O)Nc3ccc(C)c(Cl)c3)cccc2c1=O,inactive: 60%
17,CCOC(=O)C1CCN(S(=O)(=O)c2cc3c4c(c2)C(C)C(=O)N4CCC3)CC1 (configuration not stated),inactive: 98%
18,Cc1cccc(C(=O)Nc2c(C(=O)N3CCN(c4ccc(F)cc4)CC3)oc3ccccc23)c1,inactive: 89%
19,CC1Cc2cc(C(=O)NC3CCCCC3)ccc2O1 (configuration not stated),inactive: 71%
20,O=C(Cc1ccc(Cl)cc1)NCC(c1cccs1)S(=O)(=O)c1ccccc1 (configuration not stated),inactive: 55%
21,CCCSc1ncc(Cl)c(C(=O)Nc2sc(C(C)=O)c(C)c2C(=O)OCC)n1,inactive: 51%
22,Cc1ccc(S(=O)(=O)N(CC(=O)Nc2ccc(F)cc2F)Cc2ccc(F)cc2)cc1,inactive: 62%

row,Compound,survival
1,O=C(CCn1c(=O)c2cccn2c2cccnc21)N1CCN(c2ccc(F)cc2)CC1,inactive: 88%
2,COc1ccccc1CCNC(=O)Cn1ccc2cc(S(=O)(=O)N3CCCCC3)ccc21,inactive: 66%
3,CCCC(=O)Nc1nnc(SCc2cc(=O)n3ccccc3n2)s1,inactive: 87%
4,COc1ccc(C(=O)Nc2ccc3nc(SCC(=O)N4CCCC4)sc3c2)cc1,inactive: 79%
5,O=C(NC1CCCCC1)c1ccc2c(c1)N(Cc1ccccc1F)C(=O)c1ccccc1S2,inactive: 79%
6,Cn1c(=O)c(=O)n(C)c2cc(S(=O)(=O)N3CCCC3C(=O)Nc3cccc(F)c3)ccc21 (configuration not stated),inactive: 100%
7,CCOc1ccc2nc(NCCNC(=O)C(C)(C)C)c(C)cc2c1,inactive: 77%
8,CCOc1ccccc1NC(=O)c1ccc2c(c1)CCN2S(C)(=O)=O,inactive: 75%
9,Cc1cc(N2CCN(C3=NCC(C)(C)S3)CC2)n2c(nc3ccccc32)c1C#N,inactive: 74%
10,CCn1cc2nc(SCC(=O)Nc3cc(OC)ccc3OC)n(Cc3ccc(Cl)cc3)c(=O)c2n1,inactive: 61%
11,Cc1ccc(-n2c(SCC(=O)N3CCc4ccccc43)nc3c([nH]c4ccccc43)c2=O)cc1,inactive: 109%
12,CCOC(=O)c1c(CN(C)C)oc2ccc(O)cc12,inactive: 88%
13,O=C(Nc1ccc(OC(F)(F)F)cc1)c1cc2c(=O)n3ccccc3nc2s1,inactive: 87%
14,O=C(O)/C=C/c1ccc(-c2ccccc2)o1,inactive: 92%
15,CCS(=O)(=O)N1CCc2cc(C(=O)Nc3cc([N+](=O)[O-])ccc3C)ccc21,active: 40%
16,CCOc1ccc(CNC(=O)CCC(=O)N2Cc3ccccc3Oc3ncccc32)cc1,active: 32%
17,Cc1ccc(Cn2c(CN3CCC(C(=O)NCc4cccnc4)CC3)cc3ccccc32)cc1,inactive: 101%
18,O=C(CSc1nc2ccccc2o1)N=Nc1c(O)[nH]c2ccccc12,inactive: 71%
19,Cc1cc(-c2ccccc2)nc2cc(C(=O)N3CCCCCC3)nn12,inactive: 90%
20,Cc1ccc(CNC(=O)C2CCN(Cc3nc(-c4ccccc4C)oc3C)CC2)cc1,inactive: 87%
21,CCN(CCN(C)C)C(=O)Cn1ncc2c([nH]c3ccc(C)cc32)c1=O,inactive: 88%
22,Cc1ccn2c(Nc3ccccc3C)c(-c3ccncc3)nc2c1,inactive: 85%

row,Compound,survival
1,Cc1cccc(NC(=O)CSc2nnc(CNC(=O)c3cccc(C)c3)n2-c2ccccc2)c1,inactive: 59%
2,CCCCn1c(CN2CCN(c3ccc(OC)cc3)CC2)nc2c1c(=O)[nH]c(=O)n2C,inactive: 75%
3,COc1ccc(-c2noc(CN(C(=O)c3ccccc3Cl)C(C)C)n2)cc1,inactive: 62%
4,Cc1ccccc1Cn1c(-c2cccs2)nc2ccccc21,active: 19%
5,CCOC(=O)N1CCN(Cc2nc3cc(NC(=O)c4ccc(F)cc4)ccc3n2C(C)C)CC1,inactive: 58%
6,Cc1ccc(CCNC(=O)c2cnc3c(C)cccn3c2=O)cc1,inactive: 81%
7,Cc1c(Cl)cccc1NC(=O)Nc1nnc(N(C)C2CCCCC2)s1,inactive: 97%
8,Cc1ccc(C(=O)c2cn(Cc3cc(C)ccc3C)c3nc(C)ccc3c2=O)cc1,inactive: 83%
9,CCCCCCNC(=O)CCc1c(C)nc2nc(-c3cc(OC)cc(OC)c3)nn2c1C,inactive: 57%
10,CCOCCCNC(=O)C(NC(=O)C1CCC(C)CC1)C(C)C (configuration not stated),inactive: 81%
11,CCN(CC)Cc1ccc(C(=O)O)o1,inactive: 97%
12,CN(C1CCCCC1)S(=O)(=O)c1ccc2c(c1)c(=O)c(C(=O)N1CCN(c3ccc(F)cc3)CC1)cn2C,inactive: 81%
13,NC(=O)CSc1nc2cc3c(cc2c(=O)n1CCCCCC(=O)NCc1ccc2c(c1)OCO2)OCO3,inactive: 81%
14,O=C1CCCC(O)=C1C=Nc1ccc2c(c1)oc1ccccc12,inactive: 64%
15,CC(=O)c1cccc(NC(=O)CCS(=O)(=O)c2ccc3c(c2)n(C)c(=O)c(=O)n3C)c1,inactive: 84%
16,O=C(Nc1ccccc1C(F)(F)F)C1(S(=O)(=O)c2ccc(Cl)cc2)CC1,active: 84%
17,CN1CC(=O)N(CC(=O)Nc2cccc(C#N)c2)c2ccccc2C1=O,inactive: 89%
18,COc1ccc(OC)c(NC(=O)C2CCCN(S(=O)(=O)c3ccc4[nH]c(=O)ccc4c3)C2)c1 (configuration not stated),inactive: 83%
19,COc1ccc(C)cc1NC(=O)C1CCC(CNS(=O)(=O)c2ccc3c(c2)CCCC(=O)N3)CC1 (configuration not stated),inactive: 67%
20,Cc1ccc(-n2cnc3cc(C(=O)NC4CCCCCC4)ccc32)c(C)c1,inactive: 92%
21,Cc1ccc(NC(=O)CS(=O)CC(=O)NC2CCN(Cc3ccccc3)CC2)c(C)c1 (configuration not stated),inactive: 87%
